# Source: the supplement of paper PMC4604168 (melanoma cell lines)
# The list shows a part of the results. Single values are uncertain, as repeats are few or missing.
# Key:
# Test in all cases: cell count relative to DMSO control; melanoma cells; higher = more viable cells
# Conditions in all cases: library dose: standard library concentration; 72 h
# G361 = system: G361
# IPC-298 = system: IPC-298
# IST-MEL1 = system: IST-MEL1
# LB2518-MEL = system: LB2518-MEL
# LOXIMVI = system: LOXIMVI
# MEL-HO = system: MEL-HO
# MZ2-MEL = system: MZ2-MEL
# MeWo = system: MeWo
# RPMI7951 = system: RPMI7951
# RVH-421 = system: RVH-421
# SkMel28 = system: SkMel28
# SkMel2 = system: SkMel2
# SkMel30 = system: SkMel30
# SkMel5 = system: SkMel5
# UACC257 = system: UACC257
# UACC62 = system: UACC62
# WM115 = system: WM115
# WM1716 = system: WM1716
# WM1745 = system: WM1745
# WM3526 = system: WM3526
# 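Note: cells treated in 1,536-well plates, then fixed and DAPI-stained, with nuclei counted from automated high-throughput microscope images.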
Structure (SMILES),cell count (G361) [%],cell count (IPC-298) [%],cell count (IST-MEL1) [%],cell count (LB2518-MEL) [%],cell count (LOXIMVI) [%],cell count (MEL-HO) [%],cell count (MZ2-MEL) [%],cell count (MeWo) [%],cell count (RPMI7951) [%],cell count (RVH-421) [%],cell count (SkMel28) [%],cell count (SkMel2) [%],cell count (SkMel30) [%],cell count (SkMel5) [%],cell count (UACC257) [%],cell count (UACC62) [%],cell count (WM115) [%],cell count (WM1716) [%],cell count (WM1745) [%],cell count (WM3526) [%]
"CO[C@H]1C[C@@H]2CC[C@@H](C)[C@@](O)(O2)C(=O)C(=O)N2CCCC[C@H]2C(=O)O[C@H]([C@H](C)C[C@@H]2CC[C@@H](OCCO)[C@H](OC)C2)CC(=O)[C@H](C)/C=C(\C)[C@@H](O)[C@@H](OC)C(=O)[C@H](C)C[C@H](C)/C=C/C=C/C=C/1C [everolimus] + Nc1ncn([C@H]2C[C@H](O)[C@@H](CO)O2)c(=O)n1 [decitabine] (first compound 0.1 µM, partner dose 0.5 µM)",54.5,63.3,95.9,78.3,74.7,77.8,89.9,68.4,72.2,112,48.9,77.8,60.8,48.3,84.8,66,82.2,71,100,71.9
"Nc1nc(F)nc2c1ncn2[C@@H]1O[C@H](CO)[C@@H](O)[C@@H]1O [fludarabine] + C[C@]1(c2nc3c(C(N)=O)cccc3[nH]2)CCCN1 [Veliparib] (first compound 1 µM, partner dose 7 µM)",76.7,88.9,76.4,92,70.6,92.2,96.7,110,51.3,83.2,2.31,1.46,17.7,27.7,33.8,38.5,68,86.8,76.7,23.3
"CC(=O)c1c(C)c2cnc(Nc3ccc(N4CCNCC4)cn3)nc2n(C2CCCC2)c1=O [palbociclib] + CN(C)S(=O)(=O)c1ccc2c(c1)/C(=C/c1cc3c([nH]1)CCCC3)C(=O)N2 [SU6656] (first compound 0.2 µM, partner dose 2 µM)",58.4,54.9,64.5,55.7,73.7,70.4,79.7,54.1,74.2,66.9,33.5,52.5,50.9,65.4,82.2,74.9,68.2,33.6,79.3,38.4
"Nc1ccn([C@@H]2O[C@H](CO)[C@@H](O)C2(F)F)c(=O)n1 [gemcitabine] + CC(=O)c1c(C)c2cnc(Nc3ccc(N4CCNCC4)cn3)nc2n(C2CCCC2)c1=O [palbociclib] (first compound 0.002 µM, partner dose 0.2 µM)",42.6,42.1,42.5,68.2,55.9,60.4,56.8,41.9,62.8,52.4,53.7,81.7,72.5,40.9,78.5,64.2,54.8,38.4,60.1,67.8
"Nc1nc(F)nc2c1ncn2[C@@H]1O[C@H](CO)[C@@H](O)[C@@H]1O [fludarabine] + Cn1cncc1[C@@](N)(c1ccc(Cl)cc1)c1ccc2c(c1)c(-c1cccc(Cl)c1)cc(=O)n2C [tipifarnib] (first compound 1 µM, partner dose 0.05 µM)",55.3,60,53.7,65.2,68.5,76.6,97,74.8,40,76.6,3.45,1.23,17.9,32.6,34.6,54.5,57.1,51.8,69.4,20.9
"CC(=O)c1c(C)c2cnc(Nc3ccc(N4CCNCC4)cn3)nc2n(C2CCCC2)c1=O [palbociclib] + Clc1ccc(Nc2nnc(Cc3ccncc3)c3ccccc23)cc1 [vatalanib] (first compound 0.2 µM, partner dose 10 µM)",60.1,60,60.1,66.3,63.6,68.8,49.1,41.1,64.4,53.8,37.5,53.2,65.1,44.4,72.9,54.6,54.2,43.4,63.1,55.7
"Nc1ncn([C@H]2C[C@H](O)[C@@H](CO)O2)c(=O)n1 [decitabine] + Cc1nc(Nc2ncc(C(=O)Nc3c(C)cccc3Cl)s2)cc(N2CCN(CCO)CC2)n1 [dasatanib] (first compound 0.5 µM, partner dose 0.02 µM)",89.5,68.6,66.6,85.3,28.6,76.3,80.2,76.4,32.8,57.7,62.7,101,102,86.5,90.7,63.6,65.5,74,38.9,85.1
"CC(=O)O[C@@]12CO[C@@H]1C[C@H](O)[C@@]1(C)C(=O)[C@H](O)C3=C(C)[C@@H](OC(=O)[C@H](O)[C@@H](NC(=O)OC(C)(C)C)c4ccccc4)C[C@@](O)([C@@H](OC(=O)c4ccccc4)[C@H]21)C3(C)C [Docetaxel] + NC1(c2ccc(-c3nc4ccn5c(=O)[nH]nc5c4cc3-c3ccccc3)cc2)CCC1 [MK2206] (first compound 0.0005 µM, partner dose 2 µM)",11.1,31.9,54.3,39.3,81.3,38.7,38.7,21,34.8,43.9,13.6,19.9,34.7,33.5,68.8,61.7,20.5,32,34.4,35.8
